Sequences and labels used below:
B1: TPR 5TU (parent)
chain: GGAUCUUCUCGAUCUAACAAAAAAGACAAAUCUGCCACAAAGCUUGAGAGCAUCUUCGGAUGCAGAGGCGGCAGCCUUCGGUGGCGCGAUAGCGCCAACGUUCUCAACUAUGACACGCAAAACGCGUGCUCCGUUGAAUGGAGUUUAUCAUG

Variants at the floor of the assay are shown more often than the library holds them. Some results are limits rather than exact numbers.

In this data set the parent is B1. The data set can be described thus: polymerase ribozyme fitness, log enrichment relative to wild type (log ratio); higher = more active; in vitro selection for triplet polymerase activity. In a few lines:
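Mutant libraries of each subunit of a heterodimeric triplet polymerase ribozyme were built by PCR and transcribed. Each library went through one round of in vitro selection in triplicate: annealing with biotinylated primer, partner subunit and triplets, frozen incubation at −7 °C, gel excision of extended constructs, streptavidin-bead capture and RT-PCR. Input and output libraries were Illumina-sequenced; only genotypes with ≥10 input reads and ≥1 read per output were kept. Fitness is log2(genotype enrichment/wild-type enrichment), using inverse-variance-weighted replicate averages.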
In the case of GGAUCUUCUCGAUCUAACAAAAAAUACAAAUCUGCCACAAAGCUUGAGACCAUCUUCGGAUGCAGAGGCGGCAGCCAUCGGUGGCGUGAUAGCGCCAACGUUCUCAGCUAUGACACGCAAAACGCGUGCUCCGUUGAAUGGAGUUUAUCAUG, the “polymerase ribozyme fitness (log ratio)” value was at most -4.2.

In the case of GGAUCUUCUCGAUCUAACAAAAAAUACAAAUCUGCCACAAAACUUGAGCGCAUCUUCGGAUGCAGAGGCGGCAGCCUUCAGUGGGGCGAUAGCGUCAACGUUAUCAACUAUGACACGCAAAACGCGUGCUCCGUUGAAUGGAGUUUAUCAUG, the “polymerase ribozyme fitness (log ratio)” value is at most -4.2. On to GGAUCUUCUCGAUCUAACAAAAAAGCCAAAUCUGCCACAAAGCUUGAGAGCCUCUUCGGAUGCAGAGGUGGCAGCCUUCGGUGGCGCGAUAGCGCCAACAUUCUCAACUAUGACACGCAAAACGAGUGCUCCGUUGAAUGGAGUUUAUCAUG, for which the “polymerase ribozyme fitness (log ratio)” value is at most -4.2.

For the variant GGAUCUUCUCGAUCUAACAAAAAAGCCACAUCUGCCACAAAGUUUGAGAGCAUAAUCGGAUGCAGAGGCGGCAGCCAUGGGUGGCGCGAUAGAGCCUACGUUCUCAACUAUGACACGCAAAACGCGUGCUCCGUUGAAUGGAGUUUAUGAUG, the “polymerase ribozyme fitness (log ratio)” value was at most -4.2. In the case of GGAUCUUCUCGAUCUAACAAAAAAGCCAAAUCUGCCACAAAGCUUGAGAGCAUCUUCGGAUGCAGAGGCGGCAGCCUUCGGUGGCGCGAUAGCGCCUACGUUCUCAACUAUGACACGCAAAACGCGUGCUCCGUUGAAUCGAGUUUAUCAUG it was at most -4.2; in that of GGAUCUUCUCGAUCUAACAAAAAAGCCAAAUCUGCCACAACGCUUGAGAGCAUCUACGGAUGCAGAGGCGGCAGCCUUCGGUGGCGCGAUAGCGCCAAAGUUCUCAACUAUGACACGCAAAACGCGUGCUCCGCUGAAUAGAGUUUAUCAUG, at most -4.2. In the case of GGAUCUUCUCGAUCUAACAAAAAAUACAAAUCGGCCACAAAGCUUGAGCGCAUCUUCGGAUGCAGAGGCGGAAGCCUUCGGUGGUGCGAUCGCGCCAACGUUCUCAACUAUGACACGCAAAACGCGUGCUCCGUUGAAUGGAGUUUAUCAUG it was at most -4.2. Turning to GGAUCUUCUCGAUCUAACAAAAAAGCGAAAUCUGCCACAAAGCUUGAGAGCCUCUUCGGAUGCAGAGGCGGGAGCCUUCGGUGGCGCGAUUGCGCCAACGUUCUCAACUAUGACACGCAAAACGCGUGCUCCGUUGAAUGGAGUUUAUCAUG, the “polymerase ribozyme fitness (log ratio)” value is at most -4.2. In the case of GGAUCUUCUCGAUCUAACAAAAAAGCCAAUUCUGCCACAAAGCUUGAGAGCAUCUUCGGAUGCAGAGGCGGCAGCCUUUGGUGGCGCGAUAGCGCCAACGUUCUCAACUAUGACACGCAAAACGCGUGCUCCGUUGAAUGGAGUUUAUCAUG it was at most -4.2.

For the variant GGAUCUUCUCGAUCUAACAAAAAAUACAAAUCUGCCACAAAGCUUGAGAGCAUCUUCGGAUGCAGAGUCGGCAGCCUUCGGUUGCGCGAUAGCGCCAACGUUCGCAACUAUGACCCGCAAAACGCGUGCUCCGUUGAAUGCAGUUUAACAUG, the “polymerase ribozyme fitness (log ratio)” value was at most -4.2. With GGAUCUUCUCGAUCUAACAAAAAAGCCAAAUGUGCCACAAAGCUUGAGAGCAUUUUCGGAUGCAGAGGCGGCAGCCUUCGGUGGCGGGAUAGCGUCAACGUUCUCAACUAUGACACGCAAAACGCGUGCUCCGUUGAAUGGAGUUUAUCAUG the figure was -3.91; with GGAUCUUCUCGAUCUAACAAAAAAUACAAAUCUGCCACAAAGCUUGAGAGCAUCUUCGGAUGCAGAGGCGGCAGCCUUCGGUGUCGCGAUAGCGCCAACGUUCUCAACUAUGACACGCAAAACGCGUGCUCCGUAGAAUGGAGUUUAUCAUG, at most -4.2; with GGAUCUUCUCGAUCUAACAAAAAAGCCAAAUCUGCCACAAAGCUUGAGGGCAUCUUCGGAUGCAGAGUCGGCAGCCUUCUGUAGCGCGAUAGCGCCAACGUUCUCAACUAUGACACGCAAAACGCGUGCUACGUUGAAUGGAGUUUAUCAUG, at most -4.2.

On to GGAUCUUCUCGAUCUAACAAAAAAUACAAAUCUGCCACAAAGCUUGAGAGCAUCAUCGGAUGCAGAGGCGGCAACCUUCGGUGGUGCGAUAGCGCCAACGUUCUCCACUAUGACACGCAAAACGCGUGCUCCGUUUAAUGGAGUUUACCAUG, for which the “polymerase ribozyme fitness (log ratio)” value was at most -4.2. Take GGAUCUUCUCGAUCUAACAAAAAAGCCAAAUCUGCCACAAAGCUUGAGAGCAUCUUCGGAUGCAGAGGCGGCCGCCUUCGGUGGCGCGAUAACGCCAACGUUCUCAACUAUGACACGCAAAACGCGUGCUCCGUUGAAUGGAGACUAUCAUG: the “polymerase ribozyme fitness (log ratio)” value is at most -4.2. With GGAUCUUCUCGAUCUAACAAAAAAUACAAAUCUGCCACAAAGCUUGAAAGCAUCUUCGGAUGCAGAGGGGGCAGCCUUCGGUGGCGCGAUAGCAUCUACGUUCUCAACUAUAACCUGCUAAACGCGUGCUCCGUUGAAUGGAGUUUAUCAUG the figure was at most -4.2.

For the variant GGAUCUUCUCGAUCUAACAAAAAAUACAAAUCUGCCACAAAGCUUGAGAGCAUCCUCGGAUGCAGAGGCGGCAGCCUUCGGUGGCGCGAUUGCGCCAACGUUCUCAACUAUGACACGCAAAACGCGUGCUCCGUUGAAUGGAGUUUAUCAUG, the “polymerase ribozyme fitness (log ratio)” value was at most -4.2. With GGAUCUUCUCGAUCUAACAAAAAAGCCUAAUCUGCCACAAAGCUUGAGAGCAUCUUCGGAUGCAGAGGCGGCAGCCCUCGGUGGUGCGAUAGCGCCAACGUUCUCAACUAUGACACGCAAAACGCGUACUCCGUUGAAUGGUGUUUAUCAUG the figure was at most -4.2; with GGAUCUUCUCGAUCUAACAAAAAAUACAAAUCUGCCACAAAGCUUGAGAGCAUCUUCGGAUGCAGAGGCGGCAGCCUUCGGUGGCGCCAUAGCGCCAACGUUCUCAACUAUGACAGGCAAAACGCGUGCUCCGUUGAAUAGAGUUUAUCAUG, at most -4.2. With GGAUCUUCUCGAUCUAACAAAAAAUACAAAUCUGCCACAAAGCUUGAGAGCAUCUUCGGAUGCAGAGGCGGCAGCCUUCGGUGGCGCGAUAACGCCAGCGUUCUCAACUAUGACACGCAAGACUCGUGCUCCGUUGUAUGGAGUUUAUCUUG the figure was at most -4.2; with GGAUCUUCUCGAUCUAACAAAAAAUACAAAUCUGCCACAAAGCUUGAGAGCAUCUUCGGAUGCAGAGGCGGCAGCCUUCGGUGGCGCGAUAGCGCCAAUGUUCUCAACUAUGACACGCCGAACGCGUGCUCCGUUGAAUGGAGUUUAUCAUG, -3.26; with GGAUCUUCUCGAUCUAACAAAAAAUACAAAUCUGCCACAAAGCUUGAGACCAUCUUCGGAUGCAGAGGCGGCAGCCUUCGGUGGCGGGAUAGCGCCAACGUUCUCAACUAUGACACGCAAAACGCGUGCUCCGUUUAAUGGAGUUUAUCAUG, at most -4.2. In the case of GGAUCUUCUCGAUCUAACAAAAAAUACAAAUCUGCCACAAAGCUUGAGACCAUCUUCGGAUGCAGAGGCGGCAGCCUUCGGUGGCGCGAUAGCGCCAACGUUCUCAACUUUGACACGCAAAACGCGUGCUCCGUUGAAUGGAGUUUAUCAUG it was at most -4.2.

Turning to GGAUCUUCUCGAUCUAACAAAAAAUACAAAUCUGCCACAAAGCUUGAGAGCAUCAUCGGAUGCAGAGGCGGCAGCCUUCGGUGGAGCGAUAGCGCCAACGUUCUCAACUAUGACACGCAAAACGCGUGCUCCGUUGAAUCGAGUUUAUCAUG, the “polymerase ribozyme fitness (log ratio)” value is at most -4.2. In the case of GGAUCUUCUCGAUCUAACAAAAAAUACAAAUCUGCCACAAAGCUUGAGAUCAUCUUCGGAUGCAGAGGCGGCAGCCUUCGGUGGCGCGAUAACGCCAACGUUCUCAACUAUGACACGCAAAACGCGUGCUCCGUUGAAUGGAGUUUAUCAUG it was at most -4.2; in that of GGAUCUUCUCGAUCUAACAAAAAAGCCAAAUCUGCCACCAAGCUUGAGAGCAUCUUCGGAAGCAGAGGCGGAAGCCUUCGGUCCAGCGAUAGCGCCAACGUUCUCAACUAUGACACGCAACACGGGUGCUCCGUUAAAUGGAGUUUAUCAUG, at most -4.2. For GGAUCUUCUCGAUCUAACAAAAAAGCCAAAUCUGCAACAAAGCUUGAGAGCAUCUUCGGAUGCAGAGGCGGCAGCCUUCGGUGGCGCGAUAGCGCCAACGUUCUGGACUAUGACACGCAAUACGCGUGCUCCGUUGAAUGGAGUUUAUCAUG, the “polymerase ribozyme fitness (log ratio)” value was at most -4.2. In the case of GGAUCUUCUCGAUCUAACAAAAAAUACAAAUCUGCCACAAAGCUUCAGAGCAUCUUAGGAUGCAGAGGCGGCAGCCUUCGGUGGCGCGAUAGGGCCAACGUUCUCGACUAUGACACGCAAAACGCGUGCUCCGUUGAAUGGAGUUUAUCAUG it was at most -4.2; in that of GGAUCUUCUCGAUCUAACAAAAAAGCCAAAUCUGCCACAAAGCUUGAGAGCGUCUUCGGAUGCAGAGGCGGCAGCCUUCGGUGGCGCGAUAGCGCCAACGUUCUCAACUAUGACACGCAAAACGCGUGCUCCGUUGAAUGGAGUUUAUCAUG, -1.25; in that of GGAUCUUCUCGAUCUAACAAAAAAGCCAAAUCUGCCAUAAAGCUUGAGAGCAUCUUCGGAUGCAGAGGAGGCAGCCGUCGGUGGCGCUAUAGCGCCAACGUUCUCAACUAUGACACGCAAAACGCGUGCUCCGUUGAAUGGAGUUUAUCAUG, at most -4.2.

For the variant GGAUCUUCUCGAUCUAACAAAAAAGCCAAAUCUGUCACAAAGCAUGAGAGCAUCUUUUGAUGCAGAGGCGGCAGCCUUCGGUGGAGCGAUAGCGCCAACGUUCUCAACUAUGACACGCAAAACGCGUGCUCCGUUGAAUGGAGUUUAUCAUG, the “polymerase ribozyme fitness (log ratio)” value is at most -4.2. In the case of GGAUCUUCUCGAUCUAACAAAAAAUACAAAUCUGCCACAAAGCUAGACGGCAUCUUCGGAUGAAGCGGCGGCAGCUUGCGGUGGCGCGAUAGCGCCAACGUUCUCAACUAUGACACGCAAAACGCGUGGUCCGUUGAAUGGAGUUUAUCAUG it was at most -4.2; in that of GGAUCUUCUCGAUCUAACAAAAAAGCGAAAUCUGCCACAAAGCUUGAGAGCAUCUUCGGGUGCAGAGGCGGCAGCCUUCGGUGGCGCGAUAGAGCCAACGUUCUCAACUAUGACACGCAAAACGCGUGCUCCGUUGAAUGGAGUUUAUCAUG, at most -4.2; in that of GGAUCUUCUCGAUCUAACAAAAAAUACAAAUCGGCCACAAAGCUUGAGAGCAUCUUCGGAUGCAGAGGCGGCAGCCUUCGGUGGCGCGAUAGCGCUCACGUUCUCAACUAUGACACGCAAAACGCGUGCUCCGUUGAAUGUAGUUAAUCAUG, at most -4.2. In the case of GGAUCUUCUCGAUCUAACAAAAAAUACAAAUCUGCCACAAAGCUUGAGAGCAUCUUCGGAUGCAGAGGCGGCAGCCUUCCGUGGCGCGAUAGCGCCAACGUUCUCAACUAUGACACGCAAAACGCGUGCUCCGUUGAAUGGAGUUUAUCAUG it was at most -4.2. For the variant GGAUCUUCUCGAUCUAACAAAAAAUACAAAUCUGCCACAAAGCUUGAGAGCAUCUUCGGAUGCAGAGGCGGCAGCCUUCGGUGGCGCGAUAGCGCCAACGUUCUCAACUAUGACACGCAAAACGCGUGCUCCGUUGAAUGGAGUUUAACAUG, the “polymerase ribozyme fitness (log ratio)” value is at most -4.2. Take GGAUCUUCUCGAUCUAACAAAAAAUACAAAUCUGCCACAAAGCUUGAGAUCAUCUUCGGAUGCAGAGGCGGCAGCCUUCGGUGGCGCGAUAGCGCGAACAUUCUCAACUAUGACACGCAAAACGCGUGCUCAGUUGAAUGAAGUUUUUCAUG: the “polymerase ribozyme fitness (log ratio)” value was at most -4.2. Regarding GGAUCUUCUCGAUCUAACAAAAAAGCGAAAUGUGCCACAAAGCUUGAGAGCAUCUUCGGAUGCAGAGGCGGCAGCCUUCGGUGGCGCAAUAGCGCCAACGUUCUCAACUAUGACACGCAAAACGCGUGCUCCGUAGAAUGGAGUUUAUCAUG, the “polymerase ribozyme fitness (log ratio)” value was at most -4.2.

The values are drawn from the RNAGym collection of RNA variant scans (doi:10.1073/pnas.2313332121).
